The record followed here is paper PMC5892938.

The list shows a part of the results. At the low end of the ranking the order means little.

The assay concerns the target GST-SBP-SLBP (stem-loop binding protein) (UniProt Q14493). The assay is described as follows: targeted RNA Bind-n-Seq.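 Note: DESeq read counts versus GST-SBP nonspecific binding control pulldown.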 The following applies: RBNS binding buffer: 25 mM Tris pH 7.5, 150 mM KCl, 3 mM MgCl2, 0.1% Tween, 0.5 mg/mL BSA, 1 mM DTT; 27 nM protein, 750 pM RNA pool; temperature not stated; high values mean tight binding.
Take “GGUCACGUCUCAAUCAACUCAAUCUCAGGAGUUUGCUCCUGCUUAUUCAACAGCUCGCAGUCAAG”: the binding signal (log2 fold change) is 0.0572.

As to “GGUCACGUCUCAAUCAACUCCAACGAGGGGGGGAAAACCCCUUUACCCUCACAAUCAACAGCUCGCAGUCAAG”, the binding signal (log2 fold change) was 0.01.

Turning to “GGUCACGUCUCAAUCAACUCUUAGGAGGGGGGGAAAACCCCUUUACCCUCACAAUCAACAGCUCGCAGUCAAG”, the binding signal (log2 fold change) was -0.194.

For “GGUCACGUCUCAAUCAACUCUAUUCCAGGAGUUUCCUCCUGUAAAUUCAACAGCUCGCAGUCAAG”, the binding signal (log2 fold change) worked out at 0.0329.

On to “GGUCACGUCUCAAUCAACUCAUUCUCAGGAGUUUGCUCCUGUAAUUUCAACAGCUCGCAGUCAAG”, for which the binding signal (log2 fold change) was 0.145.

Turning to “GGUCACGUCUCAAUCAACUCUAUCUCCAGGGAAAACCCUGGCUAACUCAACAGCUCGCAGUCAAG”, the binding signal (log2 fold change) is 0.369.

For “GGUCACGUCUCAAUCAACUCAUCGUCCAGGGAAAGCCCUGGUAUAUUCAACAGCUCGCAGUCAAG”, the binding signal (log2 fold change) came to 0.00836.

On to “GGUCACGUCUCAAUCAACUCUUUUCCCAGGGAAAGCCCUGGUUAUUUCAACAGCUCGCAGUCAAG”, for which the binding signal (log2 fold change) was -0.164.

For the sequence “GGUCACGUCUCAAUCAACUCUCUAGAGGGGGGGAAAACCCCUUUACCCUCACCGUCAACAGCUCGCAGUCAAG”, the binding signal (log2 fold change) was -0.491.

Consider “GGUCACGUCUCAAUCAACUCUACUCCAGGAGUUUUCUCCUGUUUACUCAACAGCUCGCAGUCAAG”, for which the binding signal (log2 fold change) was 0.0265.

As to “GGUCACGUCUCAAUCAACUCAACAGAGGGGGGGAAAACCCCUUUGCCCUCCAAAUCAACAGCUCGCAGUCAAG”, the binding signal (log2 fold change) was -0.228.

With “GGUCACGUCUCAAUCAACUCAACUCCAGGAGUUUUCUCCUGUAUACUCAACAGCUCGCAGUCAAG”, the binding signal (log2 fold change) is -0.0496.

For “GGUCACGUCUCAAUCAACUCCCACGAGGGGGGGAAAACCCCUUUACCCUCUUUAUCAACAGCUCGCAGUCAAG”, the binding signal (log2 fold change) was -0.0313.

For the sequence “GGUCACGUCUCAAUCAACUCUUACGAGGGGGGGAAAACCCCUUUACCCUCCACAUCAACAGCUCGCAGUCAAG”, the binding signal (log2 fold change) was -0.213.

On to “GGUCACGUCUCAAUCAACUCAUCUCCCAGGGAAACCCCUGGUAAACUCAACAGCUCGCAGUCAAG”, for which the binding signal (log2 fold change) is -0.142.

Consider “GGUCACGUCUCAAUCAACUCUUCCUCCAGGGAAAACCCUGGCAAUUUCAACAGCUCGCAGUCAAG”, for which the binding signal (log2 fold change) was -0.168.

For the sequence “GGUCACGUCUCAAUCAACUCCCAAGAGGGGGGGAAAACCCCUUUACCCUCCGUAUCAACAGCUCGCAGUCAAG”, the binding signal (log2 fold change) was -0.0512.

“GGUCACGUCUCAAUCAACUCUAUUCCAGGAGUUUUCUCCUGUUUUUUCAACAGCUCGCAGUCAAG”: the binding signal (log2 fold change) was -0.172.

Consider “GGUCACGUCUCAAUCAACUCCAUAGAGGGGGGGAAAACCCCUUUACCCUCACCAUCAACAGCUCGCAGUCAAG”, for which the binding signal (log2 fold change) came out at 0.0827.

As to “GGUCACGUCUCAAUCAACUCAUCGUCCAGGGAAAGCCCUGGUUUAUUCAACAGCUCGCAGUCAAG”, the binding signal (log2 fold change) is -0.236.

“GGUCACGUCUCAAUCAACUCAUUUUCAGGAGUUUUCUCCUGCUAAUUCAACAGCUCGCAGUCAAG”: the binding signal (log2 fold change) was -0.0203.

On to “GGUCACGUCUCAAUCAACUCAAUCGAGGGGGGGAAAACCCCUUUGCCCUCAAAAUCAACAGCUCGCAGUCAAG”, for which the binding signal (log2 fold change) was -0.263.

As for “GGUCACGUCUCAAUCAACUCAUUUUCAGGAGUUUACUCCUGUAUUUUCAACAGCUCGCAGUCAAG”, the binding signal (log2 fold change) is 0.0109.

In the case of “GGUCACGUCUCAAUCAACUCCUAAGAGGGGGGGAAAACCCCUUUGCCCUCCAACUCAACAGCUCGCAGUCAAG”, the binding signal (log2 fold change) was -0.0802.

On to “GGUCACGUCUCAAUCAACUCUACUUCAGGAGUUUACUCCUGUAAUUUCAACAGCUCGCAGUCAAG”, for which the binding signal (log2 fold change) was -0.112.

Regarding “GGUCACGUCUCAAUCAACUCAUUCCCCAGGGAAAGCCCUGGUUUAUUCAACAGCUCGCAGUCAAG”, the binding signal (log2 fold change) was -0.165.

For the sequence “GGUCACGUCUCAAUCAACUCAAUUUCAGGAGUUUUCUCCUGUAUAGUCAACAGCUCGCAGUCAAG”, the binding signal (log2 fold change) was -0.203.

With “GGUCACGUCUCAAUCAACUCUUAAGAGGGGGGGAAAACCCCUUUGCCCUCCAUAUCAACAGCUCGCAGUCAAG”, the binding signal (log2 fold change) was -0.000801.

As to “GGUCACGUCUCAAUCAACUCUACUCCCAGGGAAACCCCUGGCAAACUCAACAGCUCGCAGUCAAG”, the binding signal (log2 fold change) is -0.0669.

“GGUCACGUCUCAAUCAACUCUACUUCAGGAGUUUCCUCCUGCUAUCUCAACAGCUCGCAGUCAAG”: the binding signal (log2 fold change) was -0.141.

Consider “GGUCACGUCUCAAUCAACUCCUAAGAGGGGGGGAAAACCCCUUUACCCUCCCAAUCAACAGCUCGCAGUCAAG”, for which the binding signal (log2 fold change) is 0.0544.

Take “GGUCACGUCUCAAUCAACUCCCUAGAGGGGGGGAAAACCCCUUUACCCUCGUUUUCAACAGCUCGCAGUCAAG”: the binding signal (log2 fold change) was -0.181.

With “GGUCACGUCUCAAUCAACUCUAACGAGGGGGGGAAAACCCCUUUGCCCUCAUAAUCAACAGCUCGCAGUCAAG”, the binding signal (log2 fold change) stood at 0.0341.

Regarding “GGUCACGUCUCAAUCAACUCAUUCCCAGGAGUUUUCUCCUGUAAUCUCAACAGCUCGCAGUCAAG”, the binding signal (log2 fold change) is 0.0752.

For “GGUCACGUCUCAAUCAACUCUAUUUCAGGAGUUUACUCCUGCAUAUUCAACAGCUCGCAGUCAAG”, the binding signal (log2 fold change) is -0.15.

As for “GGUCACGUCUCAAUCAACUCAUUCCCCAGGGAAACCCCUGGCUAAUUCAACAGCUCGCAGUCAAG”, the binding signal (log2 fold change) is -0.326.

Turning to “GGUCACGUCUCAAUCAACUCUUCGUCAGGAGUUUUCUCCUGCUAAUUCAACAGCUCGCAGUCAAG”, the binding signal (log2 fold change) came to 0.146.

“GGUCACGUCUCAAUCAACUCAAUUUCAGGAGUUUCCUCCUGCUUUCUCAACAGCUCGCAGUCAAG”: the binding signal (log2 fold change) came out at 0.0293.

Turning to “GGUCACGUCUCAAUCAACUCCCUAGAGGGGGGGAAAACCCCUUUGCCCUCACUAUCAACAGCUCGCAGUCAAG”, the binding signal (log2 fold change) is -0.236.

With “GGUCACGUCUCAAUCAACUCUUUUUCCAGGGAAAUCCCUGGCAAAUUCAACAGCUCGCAGUCAAG”, the binding signal (log2 fold change) was 0.152.

Turning to “GGUCACGUCUCAAUCAACUCCAAAGAGGGGGGGAAAACCCCUUUGCCCUCAACCUCAACAGCUCGCAGUCAAG”, the binding signal (log2 fold change) is -0.113.

Consider “GGUCACGUCUCAAUCAACUCUAUUUCCAGGGAAAACCCUGGCGUUUUCAACAGCUCGCAGUCAAG”, for which the binding signal (log2 fold change) is -0.234.

Turning to “GGUCACGUCUCAAUCAACUCAUCUUCCAGGGAAAACCCUGGUUUAUUCAACAGCUCGCAGUCAAG”, the binding signal (log2 fold change) was -0.283.

Regarding “GGUCACGUCUCAAUCAACUCUACUUCAGGAGUUUCCUCCUGCAAUUUCAACAGCUCGCAGUCAAG”, the binding signal (log2 fold change) amounted to 0.185.

Take “GGUCACGUCUCAAUCAACUCUUUUUCAGGAGUUUUCUCCUGCAAACUCAACAGCUCGCAGUCAAG”: the binding signal (log2 fold change) was -0.0925.

For the sequence “GGUCACGUCUCAAUCAACUCAAUCCCCAGGGAAAGCCCUGGUAAUCUCAACAGCUCGCAGUCAAG”, the binding signal (log2 fold change) is -0.102.

As for “GGUCACGUCUCAAUCAACUCAUCUUCAGGAGUUUCCUCCUGUAUACUCAACAGCUCGCAGUCAAG”, the binding signal (log2 fold change) was found to be 0.0402.
